Data set [1] has as its target T1, human 4-1BBL residues 58–254, wild type, His–Avi (human, UniProt P41273 partial chain, biotinylated with the BirA Biotin-protein ligase kit when necessary (surface capture, ELISA detection)).
T1 construct: human 4-1BBL (TNFSF9), residues 58-254; The insect-cell construct of the same limits is a trimer; also called wild type 4-1BBL; biotinylated human 4-1BBL wild type; source: HEK cells, transfected, secreted, purified (NiExcel, Superdex 200); not shown: His8, C-terminal, kept; Avi, C-terminal, kept
In words: ELISA; His-tagged 4-1BB WT or arginine mutants captured at 4 °C overnight by an anti-His antibody; 10 µg/ml utomilumab, urelumab or biotinylated 4-1BBL at RT for 1 h; detection with anti-human IgG Fc-HRP or streptavidin-HRP; triplicate. The note with it: both partners purified. In general terms: An ELISA detects its analyte on a solid surface through an enzyme-linked reagent.

Data set [2] concerns the target T2, human 4-1BBL residues 58–254 R171A, His–Avi (human, UniProt P41273 partial chain, R171A, biotinylated with the BirA Biotin-protein ligase kit).
T2 construct: human 4-1BBL (TNFSF9), residues 58-254, R171A; also called R171A mutant 4-1BBL; R171A 4-1BBL; source: HEK cells, transfected, secreted, purified (NiExcel, Superdex 200); not shown: Avi, C-terminal, kept
In words: SPR; Bio-Rad ProteOn XPR36, biotinylated 4-1BBL (wild type or R171A) captured on an NLC neutravidin chip; human 4-1BB 3.2-2000 nM as analyte; 37 °C, HBS with 0.01% Tween-20 and 1 mg/mL BSA; steady-state analysis; triplicate. The note with it: both partners purified. A general note: SPR reads the build-up and loss of mass on a sensor chip optically.

The target of data set [3] is T1, human 4-1BBL residues 58–254, wild …. The data set is described as above. The conditions noted are these: both partners purified.
Data set [4] deals with the molecule itself. Briefly: SEC-MALS; 4-1BB/4-1BBL complex and soluble 4-1BBL alone (Supplementary Figure 1); conditions not shown. On the technique in general: Size exclusion chromatography separates by hydrodynamic size, large species first.

B1: human 4-1BB […] I64R, His–Avi (receptor)
chain: not shown
notes: human 4-1BB (CD137, TNFRSF9), […], I64R; source: HEK cells, transfected, secreted, purified (NiExcel, Superdex 200); not shown: His8, C-terminal, kept
As for B1, in data set [1], the binding result is “binds”.

B2: human 4-1BB […] V71R, His–Avi (receptor)
chain: not shown
notes: human 4-1BB (CD137, TNFRSF9), […], V71R; source: HEK cells, transfected, secreted, purified (NiExcel, Superdex 200); not shown: His8, C-terminal, kept
For B2, the binding result in data set [1] is recorded as “binds”.

B3: human 4-1BB […], wild type, His–Avi (receptor)
chain: not shown
notes: human 4-1BB (CD137, TNFRSF9), […]; also called h4-1BB; wild type h4-1BB receptor; source: HEK cells, transfected, secreted, purified (NiExcel, Superdex 200); not shown: His8, C-terminal, kept; Avi, C-terminal, kept
The term Kd denotes the equilibrium constant for the complex coming apart. The low end stands for a tighter complex, the high end for a looser complex. Turning to B3, the Kd was 521 ± 17 nM in data set [2] and 680 ± 31 nM in data set [3].

B4: human 4-1BBL […] (crystallization construct) (ligand)
chain: not shown
notes: […] visible in the ligand-only structure; also called 4-1BB ligand; TNFSF9; source: HighFive insect cells (baculovirus), secreted, purified (Ni Sepharose excel, Superdex 200)
Usually stoichiometry N stands for a count of units in the complex or per binding partner. As for B4, the “stoichiometry N” value in data set [4] came to 3.

The values are drawn from paper PMC6224509 (Nature Communications, 2018).
